From the supplement of paper PMC9446081
The campaign covered roughly 39,000 compounds. About 220 (0.56%) showed activity. The list shows a part of the results.

These compounds were tested on Escherichia coli K-12 BW25113 (assay: relative growth (OD600 normalised to plate interquartile mean) (fraction); higher = less growth inhibition, active = 0.2 or less). Conditions: 50 µM; LB; incubation time: overnight (16-24 h).
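Also: static incubation at 37 °C against the wild-type strain, values averaged over two biological replicates.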

| Compound | relative growth |
| --- | --- |
| C1COC[C@H](c2nn[nH]n2)N1 | inactive: 1 |
| Cc1noc(C)c1S(=O)(=O)N(C)C[C@H]1Oc2ccc(N(C)C)cc2CC(=O)N([C@H](C)CO)C[C@@H]1C | inactive: 1.02 |
| Cc1noc(C)c1S(=O)(=O)Nc1cccc2c1O[C@H](CN(C)S(=O)(=O)c1cn(C)cn1)[C@H](C)CN([C@H](C)CO)C2=O | inactive: 1 |
| Cc1noc(C)c1S(=O)(=O)N(C)C[C@H]1Oc2ccc(NC(=O)Cc3ccccc3)cc2CC(=O)N([C@H](C)CO)C[C@H]1C | inactive: 1.01 |
| COc1cc(C)nc2nc(S(C)(=O)=O)nn12 | inactive: 1.02 |
| CO[C@@]1(NC(=O)[C@@H](C(=O)O)c2ccc(O)cc2)C(=O)N2C(C(=O)O)=C(CSc3nnnn3C)CO[C@@H]21 | inactive: 0.983 |
| C[C@H]1CN([C@@H](C)CO)C(=O)c2cc(NC(=O)Nc3ccccc3)ccc2O[C@@H]1CN(C)S(=O)(=O)c1cn(C)cn1 | inactive: 1 |
| CC(=O)[C@]1(N)Cc2c(O)c3c(c(O)c2[C@@H](O[C@H]2C[C@H](O)[C@H](O)CO2)C1)C(=O)c1ccccc1C3=O | inactive: 0.983 |
| Cc1ccc(S(=O)(=O)N(C)C[C@@H]2Oc3c(NS(=O)(=O)c4cn(C)cn4)cccc3C(=O)N([C@H](C)CO)C[C@@H]2C)cc1 | inactive: 1.01 |
| C/C=C/C[C@@H](C)[C@@H](O)[C@H]1C(=O)N[C@@H](CC)C(=O)N(C)CC(=O)N(C)[C@@H]([C@@H](C)CC)C(=O)N[C@@H](C(C)C)C(=O)N(C)[C@@H](CC(C)C)C(=O)N[C@@H](C)C(=O)N[C@H](C)C(=O)N(C)[C@@H](CC(C)C)C(=O)N(C)[C@@H](CC(C)C)C(=O)N(C)[C@@H](C(C)C)C(=O)N1C | inactive: 1.04 |
| C[C@H]1CN([C@@H](C)CO)C(=O)c2cc(NS(=O)(=O)c3ccccc3)ccc2O[C@H]1CN(C)Cc1ccc(-c2ccccc2)cc1 | inactive: 0.959 |
| Cc1noc(C)c1S(=O)(=O)Nc1ccc2c(c1)C(=O)N([C@H](C)CO)C[C@@H](C)[C@@H](CN(C)S(C)(=O)=O)O2 | inactive: 1.05 |
| C[C@@H]1CCCCO[C@H](CN(C)Cc2ccccc2)[C@H](C)CN([C@@H](C)CO)C(=O)c2cc(NC(=O)Nc3ccc(F)cc3)ccc2O1 | inactive: 1.04 |
| COc1ccc(CN(C)C[C@@H]2OCCCC[C@H](C)Oc3ccc(NS(=O)(=O)c4ccccc4)cc3C(=O)N([C@H](C)CO)C[C@H]2C)cc1 | inactive: 1.01 |
| Cn1cnc(S(=O)(=O)N2C[C@H](O)COC[C@H]3O[C@H](CC(=O)NCc4ccc(F)cc4)CC[C@@H]32)c1 | inactive: 0.985 |
